We go through 9 variants from the supplement of paper PMC12217912.

To fix the notation:
B1: TEV protease; numbered along this chain (parent)
chain: MGESLFKGPRDYNPISSSICHLTNESDGHTTSLYGIGFGPFIITNKHLFRRNNGTLVVQSLHGVFKVKDTTTLQQHLVDGRDMIIIRMPKDFPPFPQKLKFREPQREERICLVTTNFQTKSMSSMVSDTSCTFPSGDGIFWKHWIQTKDGQCGSPLVSTRDGFIVGIHSASNFTNTNNYFTSVPKNFMELLTNQEAQQWVSGWRLNADSVLWGGHKVFMVKPEEPFQPVKEATQL

The other results are listed elsewhere or left out. Sequences were assembled here from the parent chain. Inactive controls read about 0.05.

This test covers variants of B1. The test is described as follows: raw area under fraction-flipped curve 0-4 h after induction (AUC4h, not background-subtracted), DNA-recorder readout of cleavage of the substrate (dimensionless); higher = more cleavage of the substrate by the protease variant. As to conditions: temperature: 34 °C; time window: 0-4 h after rhamnose induction. The procedure:
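In vivo DNA recorder in E. coli TOP10(DE3) ΔrhaA at 34 °C. Each TEVp single-site mutant (parent TEVp 0) is paired with a single-site variant of the 7-mer TEVs (canonical ENLYFQ|S). The substrate sits between flexible linkers in a Bxb1-sfGFP-TEVs-SsrA fusion, so cleavage stabilises Bxb1 and speeds flipping of a recombination array, read by NGS. The value is the raw area under the fraction-flipped curve over 0-4 h after rhamnose induction (AUC4h), with ≥20 reads per time point. It is not background-subtracted; inactive controls average about 0.047.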
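Further: Bxb1 expression induced with 0.2% (w/v) L-rhamnose at OD600 near 0.5, cultures sampled hourly, flipped fraction per protease–substrate barcode pair counted by paired-end Illumina sequencing.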

As to MGESLFKGPRDYNPISSSICHLTNESDGHTTSLYGIGFGPFIITNKHLFRRNNGTLVVQSLHGVFKVKDTTTLQQHLVDGRDMIIIRMPKDFPSFPQKLKFREPQREERICLVTTNFQTKSMSSMVSDTSCTFPSGDGIFWKHWIQTKDGQCGSPLVSTRDGFIVGIHSASNFTNTNNYFTSVPKNFMELLTNQEAQQWVSGWRLNADSVLWGGHKVFMVKPEEPFQPVKEATQL [P94S], the “area with substrate ENLYFQA” value is 0.0637, the “area with substrate ENLYFQC” value was found to be 0.102, the “area with substrate ENLYFQG” value came out at 0.11 and the “area with substrate ENLYFQI” value is 0.0739. The “area with substrate ENLYFQL” value was 0.0653, the “area with substrate ENLYFQN” value was 0.0667, the “area with substrate ENLYFQP” value worked out at 0.0492 and the “area with substrate ENLYFQS” value was determined as 0.106. Besides, the “area with substrate ENLYFQT” value was determined as 0.0699 and the “area with substrate ENLYFQY” value was found to be 0.0755.

Consider MGESLFKGPRDYNPISSSICHLTNESDGHTTSLYGIGFGPFIITNKHLFRRNNGTLVVQSLHGVFKVKDTTTLMQHLVDGRDMIIIRMPKDFPPFPQKLKFREPQREERICLVTTNFQTKSMSSMVSDTSCTFPSGDGIFWKHWIQTKDGQCGSPLVSTRDGFIVGIHSASNFTNTNNYFTSVPKNFMELLTNQEAQQWVSGWRLNADSVLWGGHKVFMVKPEEPFQPVKEATQL [Q74M], for which the “area with substrate ENLYFQA” value turned out to be 0.083, the “area with substrate ENLYFQC” value worked out at 0.107, the “area with substrate ENLYFQE” value is 0.0521 and the “area with substrate ENLYFQF” value came to 0.0656. The “area with substrate ENLYFQI” value is 0.0581, the “area with substrate ENLYFQK” value worked out at 0.0631, the “area with substrate ENLYFQL” value came out at 0.0583 and the “area with substrate ENLYFQM” value stood at 0.0839. The “area with substrate ENLYFQN” value is 0.0848, the “area with substrate ENLYFQP” value was found to be 0.0698, the “area with substrate ENLYFQR” value came to 0.049 and the “area with substrate ENLYFQS” value came out at 0.0964. Besides, the “area with substrate ENLYFQT” value is 0.0703, the “area with substrate ENLYFQW” value stood at 0.0594 and the “area with substrate ENLYFQY” value was found to be 0.0721.

For MGESLFKGPRDYNPISSSICHLTNESDGHTTSLYGIGFGPFIITNKHLFRRNNGTLVVQSLHGVFKVKDTTTLQQHLVDGRDMIIIRMPKDFPPFPQKLKFREPQREERICLVTTNFITKSMSSMVSDTSCTFPSGDGIFWKHWIQTKDGQCGSPLVSTRDGFIVGIHSASNFTNTNNYFTSVPKNFMELLTNQEAQQWVSGWRLNADSVLWGGHKVFMVKPEEPFQPVKEATQL [Q118I], the “area with substrate ENLYFQA” value was found to be 0.108, the “area with substrate ENLYFQL” value is 0.0701, the “area with substrate ENLYFQM” value came out at 0.106 and the “area with substrate ENLYFQN” value was 0.0684. For the same variant, the “area with substrate ENLYFQP” value came out at 0.0575, the “area with substrate ENLYFQR” value amounted to 0.0551, the “area with substrate ENLYFQS” value worked out at 0.103 and the “area with substrate ENLYFQT” value is 0.0601. Besides, the “area with substrate ENLYFQW” value came to 0.061 and the “area with substrate ENLYFQY” value came out at 0.113.

With MGESLFKGPRDYNPISSSICHLTNESDGHTTSLYGIGFGPFIITNKHLFRRNNGTLVVQSLHGVFKVKDTTTLQQHLVDGRDMIISRMPKDFPPFPQKLKFREPQREERICLVTTNFQTKSMSSMVSDTSCTFPSGDGIFWKHWIQTKDGQCGSPLVSTRDGFIVGIHSASNFTNTNNYFTSVPKNFMELLTNQEAQQWVSGWRLNADSVLWGGHKVFMVKPEEPFQPVKEATQL [I86S], the “area with substrate ENLYFQA” value is 0.0504, the “area with substrate ENLYFQC” value turned out to be 0.0591, the “area with substrate ENLYFQD” value was 0.068 and the “area with substrate ENLYFQE” value came out at 0.0262. Also, the “area with substrate ENLYFQG” value amounted to 0.0511, the “area with substrate ENLYFQI” value stood at 0.0549, the “area with substrate ENLYFQK” value was 0.0694 and the “area with substrate ENLYFQL” value was found to be 0.0459. Further, the “area with substrate ENLYFQM” value was found to be 0.053, the “area with substrate ENLYFQN” value is 0.0514, the “area with substrate ENLYFQP” value was 0.0568 and the “area with substrate ENLYFQR” value turned out to be 0.0405. The “area with substrate ENLYFQS” value was 0.0586, the “area with substrate ENLYFQT” value was 0.0527, the “area with substrate ENLYFQV” value is 0.0438 and the “area with substrate ENLYFQW” value was 0.0482.

MGESLFKGPRDYNPISSSICHLTNESDGHTTSLYGIGFGPFIITNKHLFRRNNGTLVVQSLHGVFKVKDTTTLQQHLVDGRDMIILRMPKDFPPFPQKLKFREPQREERICLVTTNFQTKSMSSMVSDTSCTFPSGDGIFWKHWIQTKDGQCGSPLVSTRDGFIVGIHSASNFTNTNNYFTSVPKNFMELLTNQEAQQWVSGWRLNADSVLWGGHKVFMVKPEEPFQPVKEATQL [I86L]: the “area with substrate ENLYFQA” value came to 0.129, the “area with substrate ENLYFQD” value was 0.0941, the “area with substrate ENLYFQG” value worked out at 0.139 and the “area with substrate ENLYFQH” value was 0.0735. In addition, the “area with substrate ENLYFQI” value was 0.055, the “area with substrate ENLYFQR” value came out at 0.0468, the “area with substrate ENLYFQS” value worked out at 0.115 and the “area with substrate ENLYFQT” value came out at 0.0842.

For the variant MGESLFKGPRDYNPISSSICHLTNESDGHTTSLYGIGFGPFIITNKHLFRRNNGTLVVQSLHGVFKVKDTTTLQQHLVDGRDMIIIRMPKDFPPFPQKLKFREPQREERICLVTTNFQTKSMSSMVSDTSCTFPSGDGIFWKHWIQTKDGQCGSPLVSTRDGFIVGCHSASNFTNTNNYFTSVPKNFMELLTNQEAQQWVSGWRLNADSVLWGGHKVFMVKPEEPFQPVKEATQL [I167C], the “area with substrate ENLYFQA” value is 0.101, the “area with substrate ENLYFQC” value stood at 0.105, the “area with substrate ENLYFQG” value is 0.0949 and the “area with substrate ENLYFQH” value came to 0.0653. Further, the “area with substrate ENLYFQI” value is 0.0562, the “area with substrate ENLYFQK” value turned out to be 0.0583, the “area with substrate ENLYFQM” value is 0.0651 and the “area with substrate ENLYFQN” value was determined as 0.0528. Also, the “area with substrate ENLYFQP” value is 0.0445, the “area with substrate ENLYFQR” value turned out to be 0.0521, the “area with substrate ENLYFQS” value was found to be 0.0843 and the “area with substrate ENLYFQT” value turned out to be 0.0468. Also, the “area with substrate ENLYFQV” value turned out to be 0.053.

As to MGESLFKGPRDYNPISSHICHLTNESDGHTTSLYGIGFGPFIITNKHLFRRNNGTLVVQSLHGVFKVKDTTTLQQHLVDGRDMIIIRMPKDFPPFPQKLKFREPQREERICLVTTNFQTKSMSSMVSDTSCTFPSGDGIFWKHWIQTKDGQCGSPLVSTRDGFIVGIHSASNFTNTNNYFTSVPKNFMELLTNQEAQQWVSGWRLNADSVLWGGHKVFMVKPEEPFQPVKEATQL [S18H], the “area with substrate ENLYFQA” value is 0.097, the “area with substrate ENLYFQC” value was determined as 0.123, the “area with substrate ENLYFQD” value was determined as 0.0812 and the “area with substrate ENLYFQF” value was found to be 0.0701. Moreover, the “area with substrate ENLYFQG” value is 0.12, the “area with substrate ENLYFQH” value came out at 0.0828, the “area with substrate ENLYFQK” value is 0.0618 and the “area with substrate ENLYFQL” value worked out at 0.0629. Further, the “area with substrate ENLYFQM” value is 0.0893, the “area with substrate ENLYFQQ” value worked out at 0.0616, the “area with substrate ENLYFQS” value amounted to 0.105 and the “area with substrate ENLYFQT” value turned out to be 0.0719. Further, the “area with substrate ENLYFQV” value was found to be 0.0651, the “area with substrate ENLYFQW” value was found to be 0.0651 and the “area with substrate ENLYFQY” value is 0.0719.

Regarding MGESLFKGPRDYNPISSSICHLTNESDGHTTSLYGIGFGPFIITNKHLFRRNNGTLVVQSLHGVFKVKDTTTLQQHLVDGRDMIIICMPKDFPPFPQKLKFREPQREERICLVTTNFQTKSMSSMVSDTSCTFPSGDGIFWKHWIQTKDGQCGSPLVSTRDGFIVGIHSASNFTNTNNYFTSVPKNFMELLTNQEAQQWVSGWRLNADSVLWGGHKVFMVKPEEPFQPVKEATQL [R87C], the “area with substrate ENLYFQA” value came out at 0.103, the “area with substrate ENLYFQG” value amounted to 0.108, the “area with substrate ENLYFQH” value came to 0.119 and the “area with substrate ENLYFQK” value was determined as 0.0658. The “area with substrate ENLYFQL” value is 0.0638, the “area with substrate ENLYFQM” value was 0.0769, the “area with substrate ENLYFQP” value was determined as 0.0417 and the “area with substrate ENLYFQS” value came to 0.0996. The “area with substrate ENLYFQT” value came out at 0.0578, the “area with substrate ENLYFQV” value amounted to 0.046 and the “area with substrate ENLYFQY” value is 0.0706.

MGESLFKGPRDYNPISSSICHLTNESDGHTTSLYGIGFGPFIITNKHLFRRNNGTLVVQSLHGVFKVKDTTTLQQHLVDGRDMIIIRMPKDFPPFPQKLKFREPQREERICLVTTNFQTKSMSSMVSDTSCTFPSGDGIFWKHWIQTKDGQCGSPLVSTRDGFIVGIHSASNFTNTNNYFTSVPKNFMELLTNQEAQQWVSGWRLNADSVLWGGHKTFMVKPEEPFQPVKEATQL [V217T]: the “area with substrate ENLYFQA” value stood at 0.076, the “area with substrate ENLYFQC” value came to 0.0968, the “area with substrate ENLYFQG” value is 0.0782 and the “area with substrate ENLYFQH” value was 0.0649. The “area with substrate ENLYFQI” value worked out at 0.0564, the “area with substrate ENLYFQK” value was 0.0634, the “area with substrate ENLYFQM” value amounted to 0.0599 and the “area with substrate ENLYFQN” value came out at 0.0767. Besides, the “area with substrate ENLYFQP” value worked out at 0.0673, the “area with substrate ENLYFQQ” value came to 0.0565, the “area with substrate ENLYFQR” value came out at 0.0429 and the “area with substrate ENLYFQS” value amounted to 0.0785. Besides, the “area with substrate ENLYFQV” value is 0.0671 and the “area with substrate ENLYFQW” value was found to be 0.0628.
